Source: PubChem BioAssay AID1508624 (National Center for Advancing Translational Sciences (NCATS), 2021)
The campaign covered roughly 48,000 compounds. About 120 (0.25%) were called active. Not shown: some 4% with an inconclusive outcome. The call rests on the fitted dose curve; in most records, active means well fitted activation curve with a large enough effect; inconclusive means small, poorly fitted or top-dose-only effect, or another doubt; inactive means no such curve, though single readings can be large or run the other way. The list shows a part of the results.

assay: Primary qHTS for Identification of Small Molecule Activators of Huntingtin-Antisense Promoter Activity; details: HEK293 HTT-AS promoter firefly luciferase reporter, 24 h; series mostly up to 57.5 µM; activity change, positive = activation: at the top concentration; further: nearly all actives have a fitted effect of over 55% in size
In short: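 HEK293 Fluc reporter, 2,500 cells/well, 24 h pre-culture; cpds up to 57.5 uM final, 24 h 37 degrees C; Dual-Glo, 10 min RT; normalized vehicle = 0%, zero RLU = -100%.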

| SMILES | activity change, positive = activation |
| --- | --- |
| CCOc1ccc(N(CC)C(=O)c2nn(-c3ccc(OC)cc3)c(=O)c3c2c2ccccc2n3C)cc1 | inactive: -12.8% |
| COc1cccc(N2CCN(C(=O)CCCCCn3c(=O)[nH]c4ccccc4c3=O)CC2)c1 | inactive: -9.21% |
| COc1ccccc1CNC(=O)C1CCN(S(=O)(=O)c2ccc3c(c2)CCCN3C(C)=O)CC1 | inactive: -15.7% |
| CC(C)c1ccc(NC(=O)CSc2nc3ccccc3nc2Cc2ccccc2)cc1 | inactive: -10% |
| CCOc1ccccc1NC(=O)Cn1nnc(C(=O)NCc2ccc(F)cc2)c1N | inactive: -8.59% |
| CN(C)CCNC(=O)C(=O)NCC(c1cccnc1)N1CCN(c2ccc(F)cc2)CC1 (stereo unspecified) | inactive: -3.06% |
| COc1ccc(Cn2ccc3nc(C)c(C(=O)N4CCN(c5ccc(OC)cc5)CC4)cc3c2=O)cc1 | inactive: -24.2% |
| Cc1ccc(S(=O)(=O)N(C)Cc2nc(-c3ccccc3)oc2C)cc1 | inactive: -20.2% |
| CCc1nc2nc(C)c(NS(=O)(=O)c3ccc(C)cc3)c(=O)n2[nH]1 | inactive: -7.99% |
| COc1ccc2c(c1)c1c(c(=O)n(-c3ccccc3C)c(=O)n1C)n2C | inactive: -8.82% |
| CCN(CC)S(=O)(=O)c1cccc(C(=O)Nc2sc3c(c2C#N)CCC(C)C3)c1 (stereo unspecified) | inactive: -35% |
| Cc1cc(C)c(S(=O)(=O)N2CCC(N3CCN(Cc4ccccc4)C(=O)C3=O)CC2)c(C)c1 | inactive: 8.85% [at 11.5 µM, percent change from vehicle, -100% = no light] |
| COc1ccc(-n2ncc(C(=O)N3CCN(c4cc(C)ccc4C)CC3)c2C2CCN(C(=O)OC(C)(C)C)CC2)cc1 | inactive: -0.675% |
| CCN(CC)CCNC(=O)c1cn(CCOC)c(=O)c2c1c1ccccc1n2C | inactive: -7.04% |
| COc1ccc(CNCc2c(C(=O)O)c(C)n(Cc3ccccc3C)c2C)c(OC)c1 | inactive: -19.4% |
| COc1ccc(Nc2cc(C)c3cc(NC(=O)Cc4ccc(Cl)cc4)ccc3n2)cc1 | inactive: -42% |
| CCCCNC(=O)C1CCN(c2nc3ccccc3nc2C(F)(F)F)CC1 | inactive: -14.7% |
| Cc1nnc(NC(=O)CSc2nccn2Cc2ccc(Cl)cc2)s1 | inactive: -18% |
| CCOC(=O)C1=C(C)NC(C)=C(C(=O)OC)C1c1cccc([N+](=O)[O-])c1 (stereo unspecified) | inactive: -22.6% |
| Cc1nc2nc(NC(=O)CC(C)C)[nH]n2c(=O)c1Cc1ccccc1 | inactive: 3.44% |
| CCc1ccccc1NC(=O)Cc1ccc(NC(=O)N2CCCCc3ccccc32)cc1 | inactive: -12.4% |
| CCS(=O)(=O)c1ncc(Cl)c(C(=O)Nc2c(C(=O)Nc3cccc(C)c3)oc3ccccc23)n1 | inactive: 23.5% |
| Cc1ccc(-c2c(C(=O)N3CCN(c4cc(Cl)ccc4C)CC3)oc(=O)c3ccccc23)cc1 | inactive: -7.66% |

| SMILES | activity change, positive = activation |
| --- | --- |
| COc1ccc(C)cc1NC(=O)c1cc2c(=O)n(Cc3cccnc3)ccc2nc1C | inactive: -6.6% |
| COc1ccccc1N1CCN(C(CNC(=O)C(=O)NCc2ccc(F)cc2)c2cccnc2)CC1 (stereo unspecified) | inactive: -78.4% |
| O=C(Nc1ccc(F)c(Cl)c1)N1CCC2(CC1)Oc1ccccc1C(=O)N2Cc1ccccc1F | inactive: -6.52% |
| CCc1ccc(C(=O)N2CCC(c3nc(-c4ccc(S(=O)(=O)N5CCCC5)cc4)no3)CC2)cc1 | inactive: -19.5% |
| O=C(O)c1ccc(CNCc2ccccc2Cl)s1 | inactive: -16.3% |
| Cc1cccc(CNC(=O)c2ccc3oc(=O)n(Cc4ccccc4)c3c2)c1 | inactive: -20.9% |
| O=S(=O)(c1ccc(Br)cc1)c1nnn2c1nc(NCc1ccc3c(c1)OCO3)c1sccc12 | inactive: -8.3% |
| Cc1ccc(CNC(=O)CCCCCn2c(=O)c3sccc3n(CC(=O)Nc3c(C)cc(C)cc3C)c2=O)cc1 | inactive: -7.07% |
| CCCOc1ccc(CNC(=O)CCCn2nc(C)c3sc4ccccc4c3c2=O)cc1 | inactive: -15.9% |
| CCCSc1ncc(Cl)c(C(=O)Nc2c(C(=O)Nc3ccc(OC)cc3)oc3ccccc23)n1 | inactive: -3.91% |
| COc1cc(Cl)c(C)cc1NC(=O)Cn1ncc2c1-c1cc(C)ccc1OC2 | inactive: -21.6% |
| COc1ccc(C(=O)Nc2nnc(SCc3cc(=O)n4cccc(C)c4n3)s2)cc1 | inactive: 7.15% |
| CC1CCCN(Cc2nc3c(c(=O)n(C)c(=O)n3C)n2Cc2ccc(Cl)cc2)C1 (stereo unspecified) | inactive: 12.3% |
| O=C(Nc1cc(Cl)ccc1Cl)c1cc2nc(-c3ccc4c(c3)OCO4)cc(C(F)(F)F)n2n1 | inactive: -0.0671% |
| Cn1nc(C(=O)NCc2ccccc2Cl)c2c1-c1ccccc1S(=O)(=O)C2 | inactive: -23.7% |
| CSc1ccc(CNC(=O)C2CCN(c3nc4ccccc4nc3C(F)(F)F)CC2)cc1 | inactive: 10.8% |
| COc1ccc(Cl)cc1NC(=O)C1CCN(S(=O)(=O)c2ccc3c(c2)CC(C)N3C(C)=O)CC1 (stereo unspecified) | inactive: -22.6% |
| Cc1cc(C)cc(NC(=O)CSc2oc(-c3ccco3)nc2S(=O)(=O)c2ccc(Cl)cc2)c1 | inactive: -60.4% |
| CCn1nc(-c2ccccc2)c(-c2ccccc2)c(C(=O)Nc2nc(C)c(C(C)=O)s2)c1=O | inactive: -30.7% |
| CCC(=O)N1CCc2cc(CNC(=O)c3ccc(OC)cc3)ccc21 | inactive: -12.5% |
| CCCCn1cc(S(=O)(=O)c2ccc(C)c(C)c2)c(=O)c2cc(F)c(N(CC)CC)cc21 | inactive: -3.39% |
| COc1ccc(-c2nc(CN3CCC(C(=O)NCCc4ccccc4)CC3)c(C)o2)cc1OC | inactive: -9.65% |
| Cc1ccc(NC(=O)CSc2nc(=O)n(Cc3ccco3)c3c2CCC3)cc1F | inactive: -38.9% |
